Reference: PubChem BioAssay AID686978 (National Center for Advancing Translational Sciences (NCATS), 2013)
About 64,000 (15%) of roughly 420,000 compounds were called active. The inconclusive results got no clear call from the source; some entries with a clear call stand among them for comparison. Calls follow the shape of the dose curve; as a rule, active = well fitted inhibition curve with a large enough effect; inconclusive = small, poorly fitted or top-dose-only effect; inactive = flat fitted curve, though single readings scatter. Potencies of inconclusive entries are left out as doubtful fits.

Test: qHTS for Inhibitors of human tyrosyl-DNA phosphodiesterase 1 (TDP1): qHTS in cells in absence of CPT; also: nearly all actives have a fitted effect of over 55% in size
Conditions: DT40 Tdp1-/- hTDP1 cells, no CPT, ATP luminescence, 48 h; activity change, negative = growth inhibition: at 46.2 µM (top of the series) unless noted
How it was run: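 A cellular qHTS used chicken DT40 cells lacking endogenous Tdp1 but carrying stably transfected human TDP1. Compounds were applied without camptothecin, and cell growth kinetics were judged by ATP-dependent luminescence after ≥48 hr.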
% is scaled to controls: 0 for no effect and ±100 for the full control effect; potency is read from the fitted curve at half-maximal effect; tags tell the direction and shape of the fitted curve.

SMILES | activity change, negative = growth inhibition | Potency
CN(C)Cc1c(C#N)c2ccccc2n1C | inactive: -1.73% | –
COc1ccc2c(c1)CC[C@@H]1[C@@H]2CC[C@]2(C)C(=O)CC[C@@H]12 | inactive: -21.2% | –
COc1ccccc1/C=C/C(=O)Nc1cccnc1Cl | inactive: 0.663% | –
Cc1ccccc1Cn1c2ccccc2c2cnn(CC(=O)NCc3ccccn3)c(=O)c21 | – | inconclusive [inhibitor, single point]
Cc1ccccc1CN1CCC(CNC(=O)C2CCCN(c3ncnc4c3nc3n4CCCCC3)C2)CC1 (configuration not stated) | – | inconclusive [inhibitor, single point]
COc1ccccc1NC(=O)c1nc[nH]c1C(=O)Nc1ccccc1OC | – | inconclusive [inhibitor, partial curve]
COc1ccc(N2CCN(C(=O)COc3ccc4c(C)c(C)c(=O)oc4c3C)CC2)cc1 | – | inconclusive [inhibitor, single point]
CCOc1ccc(C(=O)NC2CC(=O)N(c3ccc(C)cc3)C2)cc1OCC (configuration not stated) | – | inconclusive [inhibitor, single point]
COc1ccc(S(=O)(=O)N2CCN(c3ccc4nnc(-c5ccc(F)cc5)n4n3)CC2)cc1 | – | active: 14.6 µM
O=c1c2c3nc4ccccc4nc3n(/N=C/c3ccncc3)c2ncn1-c1ccccc1 | – | inconclusive [inhibitor, partial curve]
COc1cc(OC)cc(-c2nn[nH]n2)c1 | inactive: -0.61% | –
O=C(NCc1cccc(Cl)c1)C1Cc2c(-c3cccc(F)c3)ccnc2O1 (configuration not stated) | – | active: 25.9 µM
CCOc1ccc(CN2CCN(Cc3cc4ccccc4o3)CC2CCO)cc1 (configuration not stated) | – | inconclusive [inhibitor, single point]
COC(=O)c1cc(Cl)cc2c(CCO)c[nH]c12 | – | inconclusive [inhibitor, single point]
O=C(COc1ccc(Cl)cc1)Nc1nnc(C2=COCCO2)o1 | inactive: -12.3% | –
Cc1c(C(=O)OCC(=O)NCCN2C(=O)CSC2=O)cccc1[N+](=O)[O-] | inactive: 22.6% | –
COc1ccc(/C=N/NC(=O)c2nc(-c3ccccc3)cc(-c3ccccc3)n2)cc1O | – | active: 16.4 µM
CC1CCCCC12NC(=O)N(CC(=O)c1ccc3c(c1)OCO3)C2=O (configuration not stated) | inactive: -9% | –
C#CCN(C[C@@H]1[C@@H](OC(=O)NCc2ccc(OC)c(OC)c2)[C@@H](OC(=O)NCc2ccc(OC)c(OC)c2)CN(C(=O)OC(C)C)N1C(=O)OC(C)C)S(=O)(=O)c1ccc(C)cc1 | – | active: 9.2 µM
Cc1ccc(OCc2cc(C(=O)NCC(C)(C)N3CCOCC3)no2)cc1C | – | inconclusive [inhibitor, single point]
CC1CCN(S(=O)(=O)c2ccc3c(ccn3CCC(=O)NCc3ccccc3F)c2)CC1 | – | inconclusive [inhibitor, single point]
Cc1ccc(-c2nc(NC(=O)CSc3nc(C)nc4sc5c(c34)CCCC5)ns2)cc1 | – | active: 6.51 µM
Cc1ccccc1N=C1C(=O)Nc2ccccc21 | inactive: -23.5% | –
Cn1c(NCc2ccccc2Cl)nc2ccccc21 | – | inconclusive [inhibitor, single point]

SMILES | activity change, negative = growth inhibition | Potency
COC(=O)c1c(C(=O)c2ccc(Br)cc2)n(C)c2ccccc12 | – | inconclusive [inhibitor, single point]
Cc1ccc(NC(=O)CCOc2ccccc2)cc1S(=O)(=O)Nc1ccccc1Cl | inactive: -25.4% | –
N#CCc1ccc(OC(=O)c2ccncc2)cc1 | inactive: -9.19% | –
CC(C)N(Cc1ccccc1)C(=S)NC(=O)C1(C)CC1(Cl)Cl (configuration not stated) | – | inconclusive [inhibitor, single point]
Cc1nc(N2CCN(c3ccccc3)CC2)[nH]c(=O)c1C | – | inconclusive [inhibitor, single point]
COc1ccc(CCC(=O)Nc2cccc(S(=O)(=O)N3CCCCCC3)c2)cc1OC | – | active: 14.6 µM
CCC(=O)N(C)/C=C1\Sc2ccccc2C1=O | inactive: -8.42% | –
COc1cc(OC)c(C#N)c(S(=O)(=O)Cc2ccccc2)c1 | inactive: -8.55% | –
Cc1ccccc1NC(=O)CCS(=O)(=O)c1cc(Br)cc2c1N(C(=O)C1CC1)CC2 | inactive: -2.74% | –
C=CC(=O)N1C/C(=C/c2ccccc2)C(=O)/C(=C\c2ccccc2)C1 | – | active: 0.731 µM
Cc1sc2c(c1C)c(=O)n(Cc1ccccc1)c(=O)n2Cc1ccc(F)cc1 | inactive: -4.52% | –
O=C(c1ccc(-c2ccccc2)cc1)C1CCCN(C(=O)c2ccncc2)C1 (configuration not stated) | – | inconclusive [inhibitor, single point]
Cc1cccc(NC(=O)CSc2nsc(SCC(=O)Nc3cccc(C)c3)c2C#N)c1 | – | inconclusive [inhibitor, single point]
COc1ccc(NC(=O)c2c(-c3ccccc3)c(-c3ccccc3)nn(C)c2=O)cc1OC | – | inconclusive [inhibitor, partial curve]
CCC(C)(C)n1nnnc1C(c1cccs1)N1CCc2ccccc21 (configuration not stated) | – | active: 16.4 µM
CCC(NC(=O)c1cc(COc2c(F)cccc2F)on1)c1ccncc1 (configuration not stated) | – | inconclusive [inhibitor, partial curve]
CCOC(=O)C1CCN(C(=O)CSc2nnc(-c3ccco3)n2-c2ccccc2)CC1 | inactive: -24.8% | –
CCOC(=O)N(C)c1c(CC)nc2c(OCc3ccc(F)cc3)cccn12 | – | inconclusive [inhibitor, single point]
COc1nccc(Nc2ccccc2)c1C#N | – | inconclusive [inhibitor, partial curve]
CSc1ccc(CN2CCC(Oc3ccc(C(=O)N4CCCC4)cc3)CC2)cc1 | inconclusive: -31.7% [inhibitor] | –
CC1CC(C)CN(CCOc2ccccc2-c2ccccc2)C1 (configuration not stated) | – | inconclusive [inhibitor, single point]
O=C(c1n[nH]c(=O)c2ccccc12)N1CCN(Cc2ccc3c(c2)OCO3)CC1 | – | inconclusive [inhibitor, partial curve, poor fit]
CCCc1c(C(=O)N/N=C/c2ccc(C)o2)nnn1-c1nonc1N | – | inconclusive [inhibitor, single point]
